# Assay results: the supplement of paper PMC11417369
# ± gives the standard deviation of the averaged measurements. Some of the results follow.
# Test system: PfAP2-LT AP2 domain (GST-tagged)
# Experiment: gcPBM binding intensity (ln(normalized median fluorescence intensity)); higher = stronger DNA binding
# How it was run: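 An Agilent 4 × 180k array carrying primer-extended double-stranded 36-bp intergenic genomic probes and negative controls received GST-tagged P. falciparum DNA-binding domains expressed in E. coli, about 25 μg on average, for 1 h. The binding buffer contained 1× PBS, 1% milk, 0.2 mg/ml BSA, 0.5% salmon testes DNA and 0.03% Triton X-100. Binding intensity is the top Masliner-normalised natural-log median intensity across replicate spots of either probe orientation, read after Alexa488 anti-GST antibody staining and a 488 nm scan.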
row,Sequence,gcPBM binding intensity (ln)
1,ATGTTAACTAAATGTACACACCTATGTTGATGTAAC [CACACA_site5073],9.11 ± 0.31
2,TATATATATAAAATATGTACATAAAATTATTTATTT [XGTACX_site7666],8.53 ± 0.47
3,AAAGTTTAAATGAGAAGTACAAATTTTTGTTTTTAT [XGTACX_site1844],8.46 ± 0.57
4,GTGGTTGTAATGGTGGTGCATATTGTATATTATGTT,9.515 ± 0.078
5,AATTTTATATATATATGTACATATTTATATGCTTAT [XGTACX_site8180],9.05 ± 0.46
6,AATATAAGTGTACATACACACTTTACAATATCATAT [CACACA_site5634],8.97 ± 0.4
7,ACATACATACCCCCACGTACGTACCGAAACACCACC [XGTACX_site1982],9.74 ± 0.028
8,TTTCTATATCTTTCAACACACAAATTTTTTTTTCCA [CACACA_site108],8.6 ± 0.57
9,CAAAGAACTTATAGGGTGCTTTACTTATAAGTAAAT [GTGCAC_site9579],8.6 ± 0.51
10,TTACTACTATATTATACACACATATATATATATATA [CACACA_site2621],9.385 ± 0.078
11,TTCTAATATTTTTGCACACTAAACAATAAATTTCCT [CACACA_site3944],8.87 ± 0.46
12,TTTATTTATGTAGATACACACCCATGTTATATGGAG [CACACA_site9144],8.76 ± 0.46
13,TGTGAATAAATAAGCACACATAAACACATATATAAA [CACACA_site6114],9.21 ± 0.45
14,TTAAAAGAAAAAATATGTACATATATTATATATATC [XGTACX_site7009],8.65 ± 0.38
15,GTTTATTCTTTTTATACACACCTTATTTGATTAACA [CACACA_site4567],9.03 ± 0.37
16,AATAATATATATATATATATATATAGATATGTATAT [GTGCAC_negctrl_site653],9.03 ± 0.29
17,AGCAAAAATTAAATAAATAAATATATATATATATAT [TGCATGCA_negctrl_site449],9.12 ± 0.43
18,AATGATGTCATAGGGGGTACACATAAATGTGAATGT [XGTACX_site6745],9.16 ± 0.11
19,GCAACATTCTAAGACACACACACACCCATATATATA [CACACA_site1053],9.87 ± 0.19
20,ATATTAATAATATATACACACATAAGTATTGTATAT [CACACA_site4095],8.89 ± 0.35
21,TCTTCTAATTTACCTACACACAGGAGATATATAAAT [CACACA_site6276],8.75 ± 0.37
22,TATATATATATATATTGTACAAAATATTTATATGTT [XGTACX_site436],9.12 ± 0.26

row,Sequence,gcPBM binding intensity (ln)
1,GTTCATAAATTAAACACACACACACCCCTGGATACC [CACACA_site3331],10.13 ± 0.085
2,TAATTAATTTATTAGTTGCACTGTACCATTAGAGTA,8.59 ± 0.44
3,ATCAACATTATGGTTAGTACTTAGTGAATTGTTAAT [XGTACX_site4926],8.69 ± 0.41
4,GTGTAATATATTTTTCGTACATATTATATATATATA [XGTACX_site1675],8.86 ± 0.42
5,TTATACACCTTTCATTGTACATATAATTTATATTCT [XGTACX_site8685],8.89 ± 0.42
6,AATATTCAATATATATATATATATAATATTAATATA [GTGCAC_negctrl_site571],8.71 ± 0.34
7,ATATTTTATTTAATTACACACAATATTGCAATTTGT [CACACA_site669],9.32 ± 0.4
8,TAATACCATAACAAGTGTACATAAATAATTATTGTA [XGTACX_site4949],8.86 ± 0.38
9,AAGGATTTTTTATACACACACTAACTAATGTATATA [CACACA_site7163],9 ± 0.34
10,TATATTACTTTGTGTTGTACGGAAATATATATATAT [XGTACX_site4309],8.71 ± 0.35
11,AAAACTATTAAATGTAGTACATAATTATTGAAATAA [XGTACX_site8716],8.66 ± 0.42
12,AAATACATATCATGTAGTACATATATATGTAGGTTA [XGTACX_site5392],9.29 ± 0.28
13,ATAATTATTCTTATGGTGCACTGAATATACATGTTG [GTGCAC_site9760],8.95 ± 0.44
14,CAAAAATATATTTTTTGTACACAAAAAAAAAATAAA [XGTACX_site5229],8.53 ± 0.46
15,ATAGCACATTTTTAAGCACACGTTTATTATATATAT [CACACA_site6084],9.05 ± 0.34
16,TTTTTTTGCTCTTTTTATATATATATATATATATAT [GTGCAC_negctrl_site70],9.29 ± 0.19
17,TTTTTATTGAGATACTTATATAATTTTATGAATAAA [XGTACX_negctrl_site311],8.03 ± 0.45
18,TTTGAAAAGTTGAAATGTACACATTTACACATATTT [XGTACX_site1641],8.86 ± 0.36
19,TGTTGTATTTTTACAACACACATTTAATCCATTTAA [CACACA_site1507],8.61 ± 0.44
20,CTTATATATTGGGATAGTACTTTTAACTAAATAGAA [XGTACX_site5900],8.37 ± 0.43
21,ACTTTACGAATTAAGAGTACTTATTTAAGGAACACT [XGTACX_site7919],8.64 ± 0.37
22,TACACAAAAATAAACACACACACATATATATATATA [CACACA_site1000],9.79 ± 0.23
